This is one part of the list. The list includes weakly bound sequences.

This test concerns the target T1, MBP-FoxP3dN (UniProt Q99JB6).
T1 sequence: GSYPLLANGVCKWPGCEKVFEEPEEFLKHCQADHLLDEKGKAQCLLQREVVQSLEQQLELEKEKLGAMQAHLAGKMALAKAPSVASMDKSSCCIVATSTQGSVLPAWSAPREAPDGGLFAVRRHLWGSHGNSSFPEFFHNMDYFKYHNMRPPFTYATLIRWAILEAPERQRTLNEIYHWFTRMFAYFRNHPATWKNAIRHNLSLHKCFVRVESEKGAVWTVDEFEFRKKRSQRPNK
Put plainly: PD-seq (MBP pull-down with sequencing). To be noted: 20 mM Tris-HCl pH 7.5, 100 mM NaCl, 1.5 mM MgCl2, 0.4 uM protein, 0.1 uM dsDNA library, 30 min, room temperature, amylose pull-down; high values mean tight binding; double strand, one strand shown.
For “GATGATTGTTCTCCCAGCTGATGAATTAGTGGTGTCGAGTAAACAAATTTTCCTAATCTTTCTGTTCAAGCGCCATCTAC”, the binding signal (RPM ratio (pull-down/input)) amounted to 3.01.
Next, “GATGATTGTTCTCCCAGCTGATGAATTAGCAAAATCGAGTAAACAAATTTTCCTAATCTTTCTGTTCAAGCGCCATCTAC”: 0.271; “GATGATTGTTCTCCCAGCTGATGAATTACCATCATCGAGTAAACAAATTTTCCTAATCTTTCTGTTCAAGCGCCATCTAC”: 0.663; “GATGATTGTTCTCCCAGCTGATGAATTGACAATCTCGAGTAAACAAATTTTCCTAATCTTTCTGTTCAAGCGCCATCTAC”: 0.545.
Next, “GATGATTGTTCTCCCAGCTGATGAATTCGGTGGTTCGAGTAAACAAATTTTCCTAATCTTTCTGTTCAAGCGCCATCTAC”: 1.1; “GATGATTGTTCTCCCAGCTGATGAATTCTTGACGTCGAGTAAACAAATTTTCCTAATCTTTCTGTTCAAGCGCCATCTAC”: 0.254.
For “GATGATTGTTCTCCCAGCTGATGAATTAACAAGCTCGAGTAAACAAATTTTCCTAATCTTTCTGTTCAAGCGCCATCTAC” the value was 0.36; for “GATGATTGTTCTCCCAGCTGATGAATTTACACACTCGAGTAAACAAATTTTCCTAATCTTTCTGTTCAAGCGCCATCTAC”, 0.746; for “GATGATTGTTCTCCCAGCTGATGAATTGTCTTCATCGAGTAAACAAATTTTCCTAATCTTTCTGTTCAAGCGCCATCTAC”, 0.483.
As to “GATGATTGTTCTCCCAGCTGATGAATTTCTGAATTCGAGTAAACAAATTTTCCTAATCTTTCTGTTCAAGCGCCATCTAC”, the binding signal (RPM ratio (pull-down/input)) worked out at 0.597.
In the case of “GATGATTGTTCTCCCAGCTGATGAATTATTAAAATCGAGTAAACAAATTTTCCTAATCTTTCTGTTCAAGCGCCATCTAC”, the binding signal (RPM ratio (pull-down/input)) was 0.282.
In the case of “GATGATTGTTCTCCCAGCTGATGAATTTTACATGTCGAGTAAACAAATTTTCCTAATCTTTCTGTTCAAGCGCCATCTAC”, the binding signal (RPM ratio (pull-down/input)) stood at 0.427.
Turning to “GATGATTGTTCTCCCAGCTGATGAATTCGTCCTCTCGAGTAAACAAATTTTCCTAATCTTTCTGTTCAAGCGCCATCTAC”, the binding signal (RPM ratio (pull-down/input)) came out at 0.565.
Take “GATGATTGTTCTCCCAGCTGATGAATTCGCACGTTCGAGTAAACAAATTTTCCTAATCTTTCTGTTCAAGCGCCATCTAC”: the binding signal (RPM ratio (pull-down/input)) came to 0.47.
Next, “GATGATTGTTCTCCCAGCTGATGAATTGTCGGTATCGAGTAAACAAATTTTCCTAATCTTTCTGTTCAAGCGCCATCTAC”: 0.636; “GATGATTGTTCTCCCAGCTGATGAATTCACTAAGTCGAGTAAACAAATTTTCCTAATCTTTCTGTTCAAGCGCCATCTAC”: 0.193.
Consider “GATGATTGTTCTCCCAGCTGATGAATTATAAGATTCGAGTAAACAAATTTTCCTAATCTTTCTGTTCAAGCGCCATCTAC”, for which the binding signal (RPM ratio (pull-down/input)) was 0.351.
Next, “GATGATTGTTCTCCCAGCTGATGAATTATGGCCGTCGAGTAAACAAATTTTCCTAATCTTTCTGTTCAAGCGCCATCTAC”: 0.618.
Next, “GATGATTGTTCTCCCAGCTGATGAATTGCACGCTTCGAGTAAACAAATTTTCCTAATCTTTCTGTTCAAGCGCCATCTAC”: 1.06; “GATGATTGTTCTCCCAGCTGATGAATTCGGCGTATCGAGTAAACAAATTTTCCTAATCTTTCTGTTCAAGCGCCATCTAC”: 1.17; “GATGATTGTTCTCCCAGCTGATGAATTTTTTCGGTCGAGTAAACAAATTTTCCTAATCTTTCTGTTCAAGCGCCATCTAC”: 0.168.
Turning to “GATGATTGTTCTCCCAGCTGATGAATTATCTTGATCGAGTAAACAAATTTTCCTAATCTTTCTGTTCAAGCGCCATCTAC”, the binding signal (RPM ratio (pull-down/input)) came out at 0.337.
For “GATGATTGTTCTCCCAGCTGATGAATTGGATTGTTCGAGTAAACAAATTTTCCTAATCTTTCTGTTCAAGCGCCATCTAC” the value was 2.54; for “GATGATTGTTCTCCCAGCTGATGAATTATCGCACTCGAGTAAACAAATTTTCCTAATCTTTCTGTTCAAGCGCCATCTAC”, 0.633.
Next, “GATGATTGTTCTCCCAGCTGATGAATTTCCGGGGTCGAGTAAACAAATTTTCCTAATCTTTCTGTTCAAGCGCCATCTAC”: 0.175; “GATGATTGTTCTCCCAGCTGATGAATTCCCCTTTTCGAGTAAACAAATTTTCCTAATCTTTCTGTTCAAGCGCCATCTAC”: 0.246; “GATGATTGTTCTCCCAGCTGATGAATTACGGCGCTCGAGTAAACAAATTTTCCTAATCTTTCTGTTCAAGCGCCATCTAC”: 0.387.
“GATGATTGTTCTCCCAGCTGATGAATTGATTTTGTCGAGTAAACAAATTTTCCTAATCTTTCTGTTCAAGCGCCATCTAC”: the binding signal (RPM ratio (pull-down/input)) was determined as 1.84.
Next, “GATGATTGTTCTCCCAGCTGATGAATTAAATAGGTCGAGTAAACAAATTTTCCTAATCTTTCTGTTCAAGCGCCATCTAC”: 0.382; “GATGATTGTTCTCCCAGCTGATGAATTTATTTTATCGAGTAAACAAATTTTCCTAATCTTTCTGTTCAAGCGCCATCTAC”: 3.67; “GATGATTGTTCTCCCAGCTGATGAATTGTCCGTGTCGAGTAAACAAATTTTCCTAATCTTTCTGTTCAAGCGCCATCTAC”: 0.367.

(Values after PMC12820563.)
